Measurements taken from patent US20250339567A1, “COMPOUNDS WITH IMPROVED PHARMACOKINETICS FOR IMAGING AND THERAPY OF CANCER” (priority 2019, published 2025).
At least one compound was matched to its structure with a doubt left. Starred links: 1 amine or outer side, 2 acyl side, 3 side chain; linkers in the order of their positions; H or OH if unused. Non-standard residues stand in square brackets, D forms with d. Residues, ends and D or L forms follow the SMILES beside them. *: point of attachment. DOTA = O=C(O)CN1CCN(CC(=O)O)CCN(CC(=O)*)CCN(CC(=O)O)CC1; αMeW = C[C@](N)(Cc1c[nH]c2ccccc12)C(=O)O; Sta = CC(C)C[C@H](N)[C@@H](O)CC(=O)O; Bta = N[C@@H](Cc1csc2ccccc12)C(=O)O; X1 = O=C(CN1CCC(N[*:1])CC1)[*:2]; dOrn = NCCC[C@@H](N)C(=O)O; hSer = N[C@@H](CCO)C(=O)O; dDap = NC[C@@H](N)C(=O)O

target: T1, GRPR (Homo sapiens, UniProt P30550); assay: Determination of GRPR affinity (IC50), competition with [D-3-[125I]I-Tyr6]MJ9 on PC-3 cells; format: binding; conditions: read-out: IC50 [nM] ± SD (n = 3), ^177Lu-labeled, Table 1C
T1 construct: endogenous in cells; host or cells: PC-3 cells
Experimental: The reference ligand for IC50 studies ([D-3-[^125I]I-Tyr^6]MJ9) is prepared according to a previously published procedure. Briefly, 0.2 mg of [D-Tyr^6]MJ9 are dissolved in 20 μL Tracepur water and 280 μL TRIS buffer (25 mm TRIS HCl, 0.4 M NaCl, pH=7.9). After addition of the solution to a vial containing 150 μg Iodo-Gen® (1,3,4,6-Tetrachloro-3α,6α-diphenylglycouril, surface-bound), 5.0 μL (16 MBq) [^125I]Nal(74 TBq/mmol, 3.1 GBq/mL, 40 mM NaOH, Hartmann Analytic, Braunschweig, Germany) are added.
The GRPR-positive PC-3 cells are cultured in Dublecco modified Eagle medium/Nutrition Mixture F-12 with Glutamax-I (1:1) (Invitrigon), supplemented with 10% fetal calf serum and maintained at 37° C. in a humidified 5% CO2 atmosphere.
After removal of the culture medium, the cells are washed once with 500 μL of HBSS (Hank's balanced salt solution, Biochrom, Berlin, Germany, with addition of 1% bovine serum albumin (BSA)) and left in 200 μL HBSS (1% BSA) for 9 min at room temperature for equilibration. Next, 25 μL per well of solutions, containing either HBSS (1% BSA) as control or the respective ligand in increasing concentration (10^−10 M-10^−4 M in HBSS), are added with subsequent addition of 25 μL of [D-3-[^125I]I-Tyr^6]MJ9 (2.0 nM) in HBSS (1% BSA).
All experiments are performed in triplicate for each concentration. After 2 h incubation at room temperature, the experiment is terminated by removal of the medium and consecutive rinsing with 300 μL of HBSS. The media of both steps are combined in one fraction and represent the amount of free radiolabeled reference. Afterwards, the cells are lysed with 300 μL of 1 M NaOH for at least 15 min and united with the 300 μL NaOH of the following washing step. Quantification of bound and free radiolabeled reference is accomplished in a γ-counter.
IC50 determination for each ligand was repeated twice.

T1 sequence (P30550 whole entry): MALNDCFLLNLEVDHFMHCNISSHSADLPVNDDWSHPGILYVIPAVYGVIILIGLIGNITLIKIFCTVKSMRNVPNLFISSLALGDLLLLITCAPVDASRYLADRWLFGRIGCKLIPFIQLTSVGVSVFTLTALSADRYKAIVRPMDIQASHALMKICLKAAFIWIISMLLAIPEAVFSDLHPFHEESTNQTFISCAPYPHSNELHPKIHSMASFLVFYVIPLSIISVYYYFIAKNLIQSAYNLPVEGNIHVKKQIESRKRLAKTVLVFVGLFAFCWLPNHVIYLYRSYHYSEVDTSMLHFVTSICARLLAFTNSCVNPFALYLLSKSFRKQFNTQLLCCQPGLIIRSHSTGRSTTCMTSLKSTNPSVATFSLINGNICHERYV

Structure (SMILES) | IC50
CC(C)C[C@H](NC(=O)C[C@H](O)[C@H](CC(C)C)NC(=O)[C@H](Cc1c[nH]cn1)NC(=O)CNC(=O)[C@@H](NC(=O)[C@H](CO)NC(=O)[C@](C)(Cc1c[nH]c2ccccc12)NC(=O)[C@H](CCC(N)=O)NC(=O)[C@@H](Cc1ccccc1)NC(=O)CN1CCC(NC(=O)CN2CCN(CC(=O)O)CCN(CC(=O)O)CCN(CC(=O)O)CC2)CC1)C(C)C)C(N)=O [DOTA-[α-Me-Trp^8, Ser^9]MJ9] ({DOTA}-[X1][dF]Q[αMeW]SVGH[Sta]L-NH2) | 28.4 ± 3.8 nM
CC(C)C[C@H](NC(=O)C[C@H](O)[C@H](CC(C)C)NC(=O)[C@H](Cc1c[nH]cn1)NC(=O)CNC(=O)[C@@H](NC(=O)[C@H](C)NC(=O)[C@H](Cc1c[nH]c2ccccc12)NC(=O)[C@H](CCC(N)=O)NC(=O)[C@@H](Cc1ccccc1)NC(=O)CN1CCC(NC(=O)[C@@H](CN)NC(=O)[C@@H](CCCN)NC(=O)CN2CCN(CC(=O)O)CCN(CC(=O)O)CCN(CC(=O)O)CC2)CC1)C(C)C)C(N)=O [DOTA-orn^3-dap^4-MJ9] ({DOTA}-[dOrn][dDap][X1][dF]QWAVGH[Sta]L-NH2) | 1 nM
CC(C)C[C@H](NC(=O)C[C@H](O)[C@H](CC(C)C)NC(=O)[C@H](Cc1c[nH]cn1)NC(=O)CNC(=O)[C@@H](NC(=O)[C@H](C)NC(=O)[C@H](Cc1csc2ccccc12)NC(=O)[C@H](CCC(N)=O)NC(=O)[C@@H](Cc1ccccc1)NC(=O)CN1CCC(NC(=O)[C@@H](CN)NC(=O)[C@@H](CCCN)NC(=O)CN2CCN(CC(=O)O)CCN(CC(=O)O)CCN(CC(=O)O)CC2)CC1)C(C)C)C(N)=O [DOTA-orn^3-dap^4-[Bta^8]MJ9] ({DOTA}-[dOrn][dDap][X1][dF]Q[Bta]AVGH[Sta]L-NH2) | 2.6 nM
CC(C)C[C@H](NC(=O)C[C@H](O)[C@H](CC(C)C)NC(=O)[C@H](Cc1c[nH]cn1)NC(=O)CNC(=O)[C@@H](NC(=O)[C@H](C)NC(=O)[C@H](Cc1c[nH]c2ccccc12)NC(=O)[C@H](CCO)NC(=O)[C@@H](Cc1ccccc1)NC(=O)CN1CCC(NC(=O)[C@@H](CN)NC(=O)[C@@H](CCCN)NC(=O)CN2CCN(CC(=O)O)CCN(CC(=O)O)CCN(CC(=O)O)CC2)CC1)C(C)C)C(N)=O [DOTA-orn^3-dap^4-[Hse^7]MJ9] ({DOTA}-[dOrn][dDap][X1][dF][hSer]WAVGH[Sta]L-NH2) | 10.3 ± 2 nM
CC(C)C[C@H](NC(=O)C[C@H](O)[C@H](CC(C)C)NC(=O)[C@H](Cc1c[nH]cn1)NC(=O)CNC(=O)[C@@H](NC(=O)[C@H](C)NC(=O)[C@](C)(Cc1c[nH]c2ccccc12)NC(=O)[C@H](CCC(N)=O)NC(=O)[C@@H](Cc1ccccc1)NC(=O)CN1CCC(NC(=O)[C@@H](CN)NC(=O)[C@@H](CCCN)NC(=O)CN2CCN(CC(=O)O)CCN(CC(=O)O)CCN(CC(=O)O)CC2)CC1)C(C)C)C(N)=O [DOTA-orn^3-dap^4-[α-Me-Trp^8]MJ9] ({DOTA}-[dOrn][dDap][X1][dF]Q[αMeW]AVGH[Sta]L-NH2) | 5.6 ± 1 nM
